Substitutions are numbered along the chain they refer to; changes in the protein carry UniProt numbers. The list shows a part of the results.
T1: RBFOX1 RRM (Homo sapiens, UniProt Q9NWB1 109-208)
T1 sequence: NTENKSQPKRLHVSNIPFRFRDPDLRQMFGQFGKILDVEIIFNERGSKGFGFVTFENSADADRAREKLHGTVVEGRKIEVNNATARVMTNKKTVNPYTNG

B1: UGUAGGU (DNA:RNA)
RNA: GGGAGACCGGAAUUCAGAUUGUCCUGUAGGUUUAAAUCCCGUCGUAGCCACCA
DNA 1: CAATCTGAATTCCGGTCTCCC
DNA 2: TGGTGGCTACGACGGGATT
B2: ACUCGAU (DNA:RNA)
RNA: B1 RNA with U25A, G26C, A28C, G30A
DNA 1: CAATCTGAATTCCGGTCTCCC
DNA 2: TGGTGGCTACGACGGGATT
B3: AACCGCG (DNA:RNA)
RNA: B1 RNA with U25A, G26A, U27C, A28C, G30C, U31G
DNA 1: CAATCTGAATTCCGGTCTCCC
DNA 2: TGGTGGCTACGACGGGATT
B4: CGGGGCU (DNA:RNA)
RNA: B1 RNA with U25C, U27G, A28G, G30C
DNA 1: CAATCTGAATTCCGGTCTCCC
DNA 2: TGGTGGCTACGACGGGATT
B5: AUUCAAU (DNA:RNA)
RNA: B1 RNA with U25A, G26U, A28C, G29A, G30A
DNA 1: CAATCTGAATTCCGGTCTCCC
DNA 2: TGGTGGCTACGACGGGATT
B6: CCCUUGC (DNA:RNA)
RNA: B1 RNA with U25C, G26C, U27C, A28U, G29U, U31C
DNA 1: CAATCTGAATTCCGGTCTCCC
DNA 2: TGGTGGCTACGACGGGATT
B7: AGUUCUC (DNA:RNA)
RNA: B1 RNA with U25A, A28U, G29C, G30U, U31C
DNA 1: CAATCTGAATTCCGGTCTCCC
DNA 2: TGGTGGCTACGACGGGATT
B8: CACGCGC (DNA:RNA)
RNA: B1 RNA with U25C, G26A, U27C, A28G, G29C, U31C
DNA 1: CAATCTGAATTCCGGTCTCCC
DNA 2: TGGTGGCTACGACGGGATT
B9: ACUUAUG (DNA:RNA)
RNA: B1 RNA with U25A, G26C, A28U, G29A, G30U, U31G
DNA 1: CAATCTGAATTCCGGTCTCCC
DNA 2: TGGTGGCTACGACGGGATT
B10: UGGACAU (DNA:RNA)
RNA: B1 RNA with U27G, G29C, G30A
DNA 1: CAATCTGAATTCCGGTCTCCC
DNA 2: TGGTGGCTACGACGGGATT
B11: GAGCAUU (DNA:RNA)
RNA: B1 RNA with U25G, G26A, U27G, A28C, G29A, G30U
DNA 1: CAATCTGAATTCCGGTCTCCC
DNA 2: TGGTGGCTACGACGGGATT
B12: AUUUUUG (DNA:RNA)
RNA: B1 RNA with U25A, G26U, A28U, G29U, G30U, U31G
DNA 1: CAATCTGAATTCCGGTCTCCC
DNA 2: TGGTGGCTACGACGGGATT
B13: UAGAUAC (DNA:RNA)
RNA: B1 RNA with G26A, U27G, G29U, G30A, U31C
DNA 1: CAATCTGAATTCCGGTCTCCC
DNA 2: TGGTGGCTACGACGGGATT
B14: UUGACCG (DNA:RNA)
RNA: B1 RNA with G26U, U27G, G29C, G30C, U31G
DNA 1: CAATCTGAATTCCGGTCTCCC
DNA 2: TGGTGGCTACGACGGGATT
B15: GACAAGC (DNA:RNA)
RNA: B1 RNA with U25G, G26A, U27C, G29A, U31C
DNA 1: CAATCTGAATTCCGGTCTCCC
DNA 2: TGGTGGCTACGACGGGATT
B16: ACUAUGG (DNA:RNA)
RNA: B1 RNA with U25A, G26C, G29U, U31G
DNA 1: CAATCTGAATTCCGGTCTCCC
DNA 2: TGGTGGCTACGACGGGATT
B17: AGGGGCU (DNA:RNA)
RNA: B1 RNA with U25A, U27G, A28G, G30C
DNA 1: CAATCTGAATTCCGGTCTCCC
DNA 2: TGGTGGCTACGACGGGATT
B18: GCCAACU (DNA:RNA)
RNA: B1 RNA with U25G, G26C, U27C, G29A, G30C
DNA 1: CAATCTGAATTCCGGTCTCCC
DNA 2: TGGTGGCTACGACGGGATT
B19: UAAGCGU (DNA:RNA)
RNA: B1 RNA with G26A, U27A, A28G, G29C
DNA 1: CAATCTGAATTCCGGTCTCCC
DNA 2: TGGTGGCTACGACGGGATT
B20: UCCUGAU (DNA:RNA)
RNA: B1 RNA with G26C, U27C, A28U, G30A
DNA 1: CAATCTGAATTCCGGTCTCCC
DNA 2: TGGTGGCTACGACGGGATT
B21: GCAAUCU (DNA:RNA)
RNA: B1 RNA with U25G, G26C, U27A, G29U, G30C
DNA 1: CAATCTGAATTCCGGTCTCCC
DNA 2: TGGTGGCTACGACGGGATT
B22: CGGACGA (DNA:RNA)
RNA: B1 RNA with U25C, U27G, G29C, U31A
DNA 1: CAATCTGAATTCCGGTCTCCC
DNA 2: TGGTGGCTACGACGGGATT
B23: GCUCGUU (DNA:RNA)
RNA: B1 RNA with U25G, G26C, A28C, G30U
DNA 1: CAATCTGAATTCCGGTCTCCC
DNA 2: TGGTGGCTACGACGGGATT
B24: AAGGACC (DNA:RNA)
RNA: GGGAGACCGGAAUUCAGAUUGUCCAAGGACCUUAAAUCCCGUCGUAGCCACCA
DNA 1: CAATCTGAATTCCGGTCTCCC
DNA 2: TGGTGGCTACGACGGGATT
B25: AUGGAGA (DNA:RNA)
RNA: B24 RNA with A26U, C30G, C31A
DNA 1: CAATCTGAATTCCGGTCTCCC
DNA 2: TGGTGGCTACGACGGGATT
B26: CGGGGCA (DNA:RNA)
RNA: B24 RNA with A25C, A26G, A29G, C31A
DNA 1: CAATCTGAATTCCGGTCTCCC
DNA 2: TGGTGGCTACGACGGGATT
B27: UCUUGGG (DNA:RNA)
RNA: B1 RNA with G26C, A28U, U31G
DNA 1: CAATCTGAATTCCGGTCTCCC
DNA 2: TGGTGGCTACGACGGGATT
B28: GCUCGAA (DNA:RNA)
RNA: B1 RNA with U25G, G26C, A28C, G30A, U31A
DNA 1: CAATCTGAATTCCGGTCTCCC
DNA 2: TGGTGGCTACGACGGGATT
B29: UCCGCCU (DNA:RNA)
RNA: B24 RNA with A25U, A26C, G27C, A29C, C31U
DNA 1: CAATCTGAATTCCGGTCTCCC
DNA 2: TGGTGGCTACGACGGGATT
B30: GGCAUCC (DNA:RNA)
RNA: B24 RNA with A25G, A26G, G27C, G28A, A29U
DNA 1: CAATCTGAATTCCGGTCTCCC
DNA 2: TGGTGGCTACGACGGGATT
B31: CGUCGAA (DNA:RNA)
RNA: B1 RNA with U25C, A28C, G30A, U31A
DNA 1: CAATCTGAATTCCGGTCTCCC
DNA 2: TGGTGGCTACGACGGGATT

These binders were tested against T1, RBFOX1 RRM (assay: EMSA; HiTS-Eq, 1 nM pool, 10 min; buffer printed only for the single-RNA assays: 10 mM Tris pH 7.5, 150 mM NaCl, 3.4 mM EDTA, 0.001% NP-40, 30 C). Conditions: tags: His6 N-terminal (pET28a); label: 5' 32P.
Outline: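 These values rest on relative association constants, computed from read-count changes of each RNA species versus the control reaction and normalised to the cognate motif. Reads came from free RNA recovered by 8% native PAGE after purified RbFox RRM (wild type or mutant) at increasing concentrations was equilibrated for 10 min in 50 µL with 1 nM of a 5′-radiolabelled pool with 7 randomized nucleotides and DNA-annealed flanks.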

Which binding signal does the source give for B1 here?
Its binding signal is 0.0104 KA relative to UGCAUGU.

B2 was tested. Which binding signal did it give?
The binding signal was 0.0039 KA relative to UGCAUGU.

With B3 as the binder, how does the binding signal read?
The binding signal was 0.0018 KA relative to UGCAUGU.

How did the binding signal turn out when B4 was run?
Its binding signal is 0.0294 KA relative to UGCAUGU.

B5 was tested. Which binding signal did it give?
Its binding signal is 0.00202 KA relative to UGCAUGU.

Which binding signal does the source give for B6 here?
Its binding signal is 0.0115 KA relative to UGCAUGU.

With B7 as the binder, how does the binding signal read?
The binding signal was 0.0138 KA relative to UGCAUGU.

For B8, which binding signal is on record?
The binding signal was 0.00896 KA relative to UGCAUGU.

Which binding signal does the source give for B9 here?
The binding signal was 0.0082 KA relative to UGCAUGU.

B10 was tested. Which binding signal did it give?
Its binding signal is 0.0171 KA relative to UGCAUGU.

For B11, which binding signal is on record?
Its binding signal is 0.0186 KA relative to UGCAUGU.

B12 was tested. Which binding signal did it give?
Its binding signal is 0.0181 KA relative to UGCAUGU.

For B13, which binding signal is on record?
Its binding signal is 0.00753 KA relative to UGCAUGU.

B14 was tested. Which binding signal did it give?
The binding signal was 0.0188 KA relative to UGCAUGU.

Which binding signal does the source give for B15 here?
Its binding signal is 0.0124 KA relative to UGCAUGU.

For B16, which binding signal is on record?
The binding signal was 0.00554 KA relative to UGCAUGU.

B17 was tested. Which binding signal did it give?
Its binding signal is 0.0239 KA relative to UGCAUGU.

Which binding signal does the source give for B18 here?
Its binding signal is 0.00345 KA relative to UGCAUGU.

How did the binding signal turn out when B19 was run?
Its binding signal is 0.013 KA relative to UGCAUGU.

Which binding signal does the source give for B20 here?
Its binding signal is 0.0108 KA relative to UGCAUGU.

For B21, which binding signal is on record?
The binding signal was 0.00618 KA relative to UGCAUGU.

With B22 as the binder, how does the binding signal read?
The binding signal was 0.0171 KA relative to UGCAUGU.

With B23 as the binder, how does the binding signal read?
The binding signal was 0.0239 KA relative to UGCAUGU.

Which binding signal does the source give for B24 here?
Its binding signal is 0.00475 KA relative to UGCAUGU.

How did the binding signal turn out when B25 was run?
The binding signal was 0.00682 KA relative to UGCAUGU.

Which binding signal does the source give for B26 here?
The binding signal was 0.0261 KA relative to UGCAUGU.

B27 was tested. Which binding signal did it give?
The binding signal was 0.00663 KA relative to UGCAUGU.

How did the binding signal turn out when B28 was run?
The binding signal was 0.0241 KA relative to UGCAUGU.

With B29 as the binder, how does the binding signal read?
Its binding signal is 0.00624 KA relative to UGCAUGU.

With B30 as the binder, how does the binding signal read?
The binding signal was 0.00705 KA relative to UGCAUGU.

With B31 as the binder, how does the binding signal read?
The binding signal was 0.00933 KA relative to UGCAUGU.
